Source: the supplement of paper PMC4604168 (melanoma cell lines)
The other results are listed elsewhere or left out. Single values are uncertain, as repeats are few or missing.
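Note: cells treated in 1,536-well plates, then fixed and DAPI-stained, with nuclei counted from automated high-throughput microscope images.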

Each molecule was assayed on UACC62 (assay: cell count relative to DMSO control; melanoma cells; higher = more viable cells). Conditions: library dose: standard library concentration; 72 h.
For COc1cc2c(Oc3ccc4[nH]c(C)cc4c3F)ncnc2cc1OCCCN1CCCC1 [cediranib] + COC(=O)c1sccc1S(=O)(=O)Nc1ccc(Nc2ccccc2)cc1OC [GSK0660] (first compound 2 µM, partner dose 5 µM), the cell count was 82.7%. NC(=O)c1ccc(N(C(N)=O)c2c(F)cccc2F)nc1-c1ccc(F)cc1F + Cc1cc([N+](=O)[O-])ccc1NS(=O)(=O)c1cc(Cl)ccc1Cl [FH535] (first compound 2 µM, partner dose 5 µM) showed a cell count of 77.9%. Cc1ccc(NC(=O)c2cccc(N(C)C)c2)cc1NC(=O)c1ccc(O)cc1 + N#Cc1c(O)c2c(-c3ccc(-c4ccccc4O)cc3)csc2[nH]c1=O [A769662] (first compound 10 µM, partner dose 10 µM) was tested, and the cell count was 127%. Work on NC(=O)c1ccc(N(C(N)=O)c2c(F)cccc2F)nc1-c1ccc(F)cc1F + COc1cc(N2CCC(N3CCN(C)CC3)CC2)ccc1Nc1ncc(Cl)c(Nc2ccccc2S(=O)(=O)C(C)C)n1 [NVP-TAE684] (first compound 2 µM, partner dose 0.4 µM) yielded a cell count of 79.6%. In the case of CCc1ccc(CCOc2ccc(CC3SC(=O)NC3=O)cc2)nc1 (centres undefined) [pioglitazone] + COc1ccc2c(c1)CCC1C2CCC2(C)C(NCCCCCCN3C(=O)C=CC3=O)CCC12 [U73122] (first compound 10 µM, partner dose 2 µM), the cell count is reported as 37.5%. In the case of NC(=O)c1ccc(N(C(N)=O)c2c(F)cccc2F)nc1-c1ccc(F)cc1F + COc1ccc2c(c1)CCC1C2CCC2(C)C(NCCCCCCN3C(=O)C=CC3=O)CCC12 [U73122] (first compound 2 µM, partner dose 2 µM), the cell count is reported as 72.5%. For NC(=O)c1ccc(N(C(N)=O)c2c(F)cccc2F)nc1-c1ccc(F)cc1F + O=S(=O)(c1ccccc1)N(CC(F)(F)F)c1ccc(C(O)(C(F)(F)F)C(F)(F)F)cc1 [T0901317] (first compound 2 µM, partner dose 7 µM), the cell count was 71.6%. CCCCCCCCc1ccc(CCC(N)(CO)CO)cc1 [fingolimod] + Cc1cc([N+](=O)[O-])ccc1NS(=O)(=O)c1cc(Cl)ccc1Cl [FH535] (first compound 10 µM, partner dose 5 µM) was tested, and the cell count was 32.3%. Work on CCCCCCCCc1ccc(CCC(N)(CO)CO)cc1 [fingolimod] + COc1ccc2c(c1)CCC1C2CCC2(C)C(NCCCCCCN3C(=O)C=CC3=O)CCC12 [U73122] (first compound 10 µM, partner dose 2 µM) yielded a cell count of 21.3%. In the case of NC(=O)c1ccc(N(C(N)=O)c2c(F)cccc2F)nc1-c1ccc(F)cc1F + COC(=O)c1sccc1S(=O)(=O)Nc1ccc(Nc2ccccc2)cc1OC [GSK0660] (first compound 2 µM, partner dose 5 µM), the cell count is reported as 72.4%. CCCCCCCCc1ccc(CCC(N)(CO)CO)cc1 [fingolimod] + Cc1cc(Nc2cc(N3CCN(C)CC3)nc(/C=C/c3ccccc3)n2)n[nH]1 [ENMD2076] (first compound 10 µM, partner dose 0.2 µM) showed a cell count of 22.9%. With NC(=O)c1ccc(N(C(N)=O)c2c(F)cccc2F)nc1-c1ccc(F)cc1F + COc1ccc(-c2ccc3c(N4CCOCC4)nc(N4C[C@@H](C)O[C@@H](C)C4)nc3n2)cc1CO [KU0063794] (first compound 2 µM, partner dose 0.1 µM) the cell count was 83.5%. CCCCCCCCc1ccc(CCC(N)(CO)CO)cc1 [fingolimod] + O=S(=O)(c1ccccc1)N(CC(F)(F)F)c1ccc(C(O)(C(F)(F)F)C(F)(F)F)cc1 [T0901317] (first compound 10 µM, partner dose 7 µM) was tested, and the cell count was 21.6%. CCCCCCCCc1ccc(CCC(N)(CO)CO)cc1 [fingolimod] + c1cc(-c2cnn3cc(-c4ccc(OCCN5CCCCC5)cc4)cnc23)ccn1 [Dorsomorphin] (first compound 10 µM, partner dose 2 µM) gave a cell count of 10.8%. CC(C)(C)c1cnc(CSc2cnc(NC(=O)C3CCNCC3)s2)o1 + NCC(=O)Nc1ccc(-n2nc(C(F)(F)F)cc2-c2ccc3c(ccc4ccccc43)c2)cc1 [OSU03012] (first compound 0.05 µM, partner dose 5 µM) showed a cell count of 36.6%. With NC(=O)c1ccc(N(C(N)=O)c2c(F)cccc2F)nc1-c1ccc(F)cc1F + O=C(Nc1ccccc1)c1cc([N+](=O)[O-])ccc1Cl [GW9662] (first compound 2 µM, partner dose 10 µM) the cell count was 67%. For CCCCCCCCc1ccc(CCC(N)(CO)CO)cc1 [fingolimod] + N#Cc1c(O)c2c(-c3ccc(-c4ccccc4O)cc3)csc2[nH]c1=O [A769662] (first compound 10 µM, partner dose 10 µM), the cell count was 19%. CCCCCCCCc1ccc(CCC(N)(CO)CO)cc1 [fingolimod] + CC(C)CCN1c2nc(Nc3cc(F)c(O)c(F)c3)ncc2N(C)C(=O)C1C [BID1870] (first compound 10 µM, partner dose 1 µM) showed a cell count of 52.5%. NC(=O)c1ccc(N(C(N)=O)c2c(F)cccc2F)nc1-c1ccc(F)cc1F + N#Cc1c(O)c2c(-c3ccc(-c4ccccc4O)cc3)csc2[nH]c1=O [A769662] (first compound 2 µM, partner dose 10 µM) showed a cell count of 73.4%. Molecule CCCCCCCCc1ccc(CCC(N)(CO)CO)cc1 [fingolimod] + O=C(O)c1ccc(-c2c[nH]c3ncc(-c4ccccc4)cc23)cc1C1CCCC1 [GSK650394] (first compound 10 µM, partner dose 0.8 µM) has a cell count of 21.5%. Molecule CCCCCCCCc1ccc(CCC(N)(CO)CO)cc1 [fingolimod] + CCN(CC)CCCCNc1ncc2cc(-c3cc(OC)cc(OC)c3)c(NC(=O)NC(C)(C)C)nc2n1 [PD173074] (first compound 10 µM, partner dose 0.5 µM) has a cell count of 43.2%. NC(=O)c1ccc(N(C(N)=O)c2c(F)cccc2F)nc1-c1ccc(F)cc1F + CCCCCCCCCCCC1=C(O)C(=O)C=C(O)C1=O [Embelin] (first compound 2 µM, partner dose 6 µM) was tested, and the cell count was 109%. In the case of CCCCCCCCc1ccc(CCC(N)(CO)CO)cc1 [fingolimod] + O=C(Nc1ccccc1)c1cc([N+](=O)[O-])ccc1Cl [GW9662] (first compound 10 µM, partner dose 10 µM), the cell count is reported as 19.9%. Molecule NC(=O)c1ccc(N(C(N)=O)c2c(F)cccc2F)nc1-c1ccc(F)cc1F + Cn1cc(/C=C2\C(=O)Nc3cccnc32)c2ccccc21 [GW441756] (first compound 2 µM, partner dose 2 µM) has a cell count of 98.1%.
